# Measured values: PubChem BioAssay AID588342 (National Center for Advancing Translational Sciences (NCATS), 2011)
# Out of some 360,000 compounds screened, about 25,000 (6.9%) were called active. The inconclusive results got no clear call from the source; some entries with a clear call stand among them for comparison. Calls come from the whole dose curve; as a rule, active = well fitted inhibition curve with a large enough effect; inconclusive = small, poorly fitted or top-dose-only effect; inactive = flat fitted curve, though single readings scatter. A potency beside an inconclusive call is a rough fit, not a confirmed value.
# Target: Luciferin 4-monooxygenase (Photinus pyralis) (UniProt P08659)
# UniProt P08659, sequence (P08659 whole entry, looked up): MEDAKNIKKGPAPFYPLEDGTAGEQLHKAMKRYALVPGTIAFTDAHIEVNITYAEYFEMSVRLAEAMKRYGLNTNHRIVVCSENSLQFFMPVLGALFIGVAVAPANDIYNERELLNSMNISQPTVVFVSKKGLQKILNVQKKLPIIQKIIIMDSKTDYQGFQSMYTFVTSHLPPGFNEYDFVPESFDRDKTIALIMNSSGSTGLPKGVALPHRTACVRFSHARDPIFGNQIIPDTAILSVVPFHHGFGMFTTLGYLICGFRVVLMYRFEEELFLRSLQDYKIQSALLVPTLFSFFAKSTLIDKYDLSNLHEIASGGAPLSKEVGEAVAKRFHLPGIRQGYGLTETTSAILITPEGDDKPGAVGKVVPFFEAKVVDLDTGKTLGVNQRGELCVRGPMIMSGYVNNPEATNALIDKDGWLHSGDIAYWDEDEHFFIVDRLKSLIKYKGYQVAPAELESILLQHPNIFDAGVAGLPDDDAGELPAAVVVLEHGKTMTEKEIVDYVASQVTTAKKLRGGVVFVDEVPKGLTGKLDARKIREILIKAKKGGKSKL
# Test: qHTS profiling assay for firefly luciferase inhibitor/activator using purifed enzyme and Km concentrations of substrates (counterscreen for miR-21 project); note: nearly all actives have a fitted effect of over 55% in size;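 for activity change, negative = inhibition: plate controls were vehicle for no effect and reference inhibitor for full effect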
# Conditions: purified FLuc, luminescence inhibition; series mostly up to 57.5 µM
# Method in brief: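 Biochemical qHTS of compounds, final roughly 60 µM downward over six points, against 10 nM purified firefly luciferase using Km concentrations of substrates (10 uM D-luciferin, 10 uM ATP) in Tris acetate pH 7.5 buffer; luminescence output.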
# Potency is the fitted concentration of half-maximal effect; tags give direction and shape of the fitted curve.
SMILES,Potency,"activity change, negative = inhibition"
CSc1nc(-c2ccc(Cl)cc2)c(C#N)c(=O)[nH]1,"inconclusive: 16.9 µM [inhibitor, partial curve, poor fit]",
CN1CCN(c2ccc(NC(=O)c3cc(Cl)c4c(c3)OCCO4)cc2)CC1,active: 10.7 µM,
Cc1cc(C)n2nc(-c3cccc(Br)c3)cc2n1,active: 8.49 µM,
O=C(/C=C/c1ccco1)NCCc1ccccc1,"inconclusive: 37.9 µM [inhibitor, single point]",
O=C(O)COc1ccc(-c2nccc(-c3ccccn3)n2)cc1,active: 3.38 µM,
COc1cccc(-c2nc(-c3ccc(NC(=O)c4cccnc4)cc3)no2)c1,"inconclusive: 7.57 µM [inhibitor, full curve]",
CCCCNS(=O)(=O)c1ccc2nc(NC(=O)c3cccnc3)sc2c1,"inconclusive: 10.7 µM [inhibitor, partial curve, poor fit]",
CCN(CC)c1ccc(NC(=O)c2cnn(CC)c2)cc1,"inconclusive: 23.9 µM [inhibitor, single point]",
COc1cc2c(cc1NC(=O)Cc1ccc(C)cc1)oc1ccccc12,active: 15.1 µM,
COc1ccc(N2CC(NC(=O)c3ccc(S(=O)(=O)N4CCCC4)cc3)CC2=O)cc1 (configuration not stated),inactive,
COc1cccc(CNc2ccc3c(c2)ncn3C(C)C)c1OC,active: 16.9 µM,
CCOc1ccc(Oc2ccc(NC(=O)[C@@H](NC(N)=O)[C@@H](C)CC)cc2)cc1,inactive,
CCOc1ccc(S(=O)(=O)N(C)c2ccc(OCC(=O)NC3=NCCS3)cc2)cc1,"inconclusive: 19 µM [inhibitor, single point]",
O=C(Nc1ccc(Cl)cc1)Nc1ccc(C(=O)N2CCOCC2)cc1,"inconclusive: 21.3 µM [inhibitor, partial curve, poor fit]",
S=C(NCCc1ccccc1)Nc1ccc(Br)cc1,active: 19 µM,
O=C(CNC(=O)c1sc2ccccc2c1Cl)NC1CC1,"inconclusive: 15.1 µM [inhibitor, partial curve]",
CCSc1ncnc2c1sc1nc3c(cc12)COC(C)(C)C3,active: 2.69 µM,
O=C(Nc1ccc(Cl)cc1)Nc1ccon1,"inconclusive: 23.9 µM [inhibitor, partial curve, poor fit]",
CCn1c(C(=O)N2CCC(C(=O)NCCc3ccccc3)CC2)cc2sccc21,inactive,
COc1ccc(CNC(=O)COc2cc(O)c3c(c2)OC(C)(C)CC3=O)cc1,"inconclusive: 37.9 µM [inhibitor, partial curve, poor fit]",
COc1ccc(Cc2n[nH]c(=S)n2NC(=O)Nc2ccc(C)cc2)cc1,"inconclusive: 26.9 µM [inhibitor, single point]",
COC(=O)/C(=C\Nc1ccc(Cl)cc1Cl)NC(=O)c1ccc(OC)cc1,"inconclusive: 37.9 µM [inhibitor, partial curve, poor fit]",
Cc1ccc(/C(N)=N/OC(=O)N2CCOCC2)cc1,"inconclusive: 33.8 µM [inhibitor, partial curve, poor fit]",
CCn1c(SCC(=O)c2ccc(C)cc2)nnc1-c1ccncc1,"inconclusive: 37.9 µM [inhibitor, partial curve, poor fit]",

SMILES,Potency,"activity change, negative = inhibition"
CN(C(=O)COC(=O)c1cn(-c2ccccc2)nc1-c1ccccc1)C1CCS(=O)(=O)C1 (configuration not stated),"inconclusive: 37.9 µM [inhibitor, partial curve, poor fit]",
FC(F)Oc1ccc(-c2csc(NNC3=NCCCCC3)n2)cc1,"inconclusive: 37.9 µM [inhibitor, partial curve, poor fit]",
CC(C)NC(=O)CC1C(=O)N(Cc2ccccc2)C(C)c2nc3ccccc3n21 (configuration not stated),inactive,
O=C(NCc1cccs1)c1cc(C2CC2)on1,"inconclusive: 16.9 µM [inhibitor, single point]",
COCCN(C(=O)COC(=O)CCC(=O)c1cccs1)c1c(N)n(Cc2ccccc2)c(=O)[nH]c1=O,inactive,
c1ccc2[nH]c(SCc3cn4ccccc4n3)nc2c1,"inconclusive: 19 µM [inhibitor, partial curve]",
O=[N+]([O-])c1ccccc1S(=O)(=O)Nc1ccc(-c2ccc(N3CCOCC3)nn2)cc1,"inconclusive: 30.1 µM [inhibitor, single point]",
COc1ccccc1NC(=O)CCSc1ccc(C)cc1,"inconclusive: 37.9 µM [inhibitor, single point]",
C(=C\c1ccccc1)/C=N/Nc1nc2ccccc2s1,active: 2.39 µM,
O=C(Cc1cccs1)Nc1cccc(-c2nc3cc4ccccc4cc3[nH]2)c1,active: 0.849 µM,
O=C(O)c1cc(-c2ccco2)nc2cc3ccccc3cc12,active: 8.49 µM,
O=C(c1cc(-c2ccc(Br)cc2)on1)N1CCCCCC1,active: 1.35 µM,
O=C(Nc1ccc(OC(F)F)cc1)Nc1cccc(C(F)(F)F)c1,"inconclusive: 37.9 µM [inhibitor, single point]",
COc1ccccc1NC(=O)CSc1nnc(C)s1,inactive,
O=C(Nc1ccc(CN2CCOCC2)cc1)c1ccc(-c2cc(Cl)ccc2Cl)o1,"inconclusive: 8.49 µM [inhibitor, partial curve, poor fit]",
O=C(Nc1nc2ccccc2s1)c1ccc2c(c1)OCO2,active: 0.301 µM,
CC(C)(C)C(=O)Nc1ccc(/C=C/C(=O)c2ccco2)cc1,active: 0.426 µM,
O=C(COC(=O)CCCNC(=O)c1ccc(Cl)cc1)Nc1cc(Cl)c(Cl)cc1Cl,"inconclusive: 7.57 µM [inhibitor, full curve]",
CCSc1nnc(-c2cc(Br)ccc2N)c(=O)[nH]1,"inconclusive: 37.9 µM [inhibitor, partial curve, poor fit]",
Nc1c(C(=O)Nc2ccccc2)sc2nc3c(c(-c4ccco4)c12)CCC3,"inconclusive: 26.9 µM [inhibitor, single point]",
COCCCn1c(C)cc(C(=O)COC(=O)C23CC4CC(CC(O)(C4)C2)C3)c1C,"inconclusive: 2.69 µM [inhibitor, partial curve]",
COc1ccc(NC(=O)CCC(=O)Nc2ccc3nc(N4CCOCC4)cc(C)c3c2)c(OC)c1,active: 2.69 µM,
O=C(N/N=C/c1cc2c(cc1[N+](=O)[O-])OCO2)c1ccc2c(c1)OCO2,"inconclusive: 10.7 µM [inhibitor, partial curve, poor fit]",
Cc1ccccc1CNC(=O)Cc1ccccc1[N+](=O)[O-],active: 16.9 µM,

SMILES,Potency,"activity change, negative = inhibition"
Cc1ccc(CSc2nc3ccc(NC(=O)C(C)C)cc3s2)cc1,"inconclusive: 0.601 µM [inhibitor, full curve]",
CC(C)N(C(=O)Nc1ccc2nccnc2c1)C(C)C,"inconclusive: 37.9 µM [inhibitor, single point]",
C=CCc1ccc(OCCOCCOc2ccccc2[N+](=O)[O-])c(OC)c1,"inconclusive: 30.1 µM [inhibitor, partial curve, poor fit]",
Cc1ccn(-c2cccc(-n3ccc(C)n3)n2)n1,active: 3.38 µM,
Fc1ccc(-c2nnc(NC3=NCCCCC3)o2)cc1,active: 0.601 µM,
CCc1ccc(NC(=O)CSc2nccn(-c3ccc4c(c3)OCCO4)c2=O)cc1,"inconclusive: 19 µM [inhibitor, single point]",
Cc1cc(OC(=O)c2cc(-c3ccc4c(c3)OCCO4)on2)ccc1Cl,"inconclusive: 3.38 µM [inhibitor, full curve]",
O=c1oc(-c2cccs2)nc2ccccc12,,inactive: 6.23% [at 2.3 µM]
CC/C(=N\NC(=O)c1ccc2c(c1)OCO2)c1ccccc1,"inconclusive: 16.9 µM [inhibitor, partial curve]",
CCN(CC)c1ccc(NC(=O)c2ccccc2Br)cc1S(=O)(=O)Nc1ccccc1OC,"inconclusive: 13.5 µM [inhibitor, partial curve]",
CC(=O)Nc1ccc(C(=O)N/N=C/c2ccccc2OCc2ccccc2)cc1,active: 16.9 µM,
CC(Sc1nnc(-c2ccc(O)cc2)o1)C(=O)Nc1cccc2ccccc12 (configuration not stated),"inconclusive: 8.49 µM [inhibitor, partial curve, poor fit]",
CCOc1ccc(NC(=S)NC(=O)c2c(Cl)cnn2CC)c([N+](=O)[O-])c1,inactive,
CC(C)CC1NC(=O)N(CC(=O)c2ccc3c(c2)OCCO3)C1=O (configuration not stated),active: 10.7 µM,
COc1ccc(C(=O)/C=C/c2ccc(O)cc2)cc1,active: 8.49 µM,
COc1cc(/C=C(\C#N)C(=O)Nc2cccc(C(=O)O)c2)ccc1OCc1ccc(C)cc1,"inconclusive: 37.9 µM [inhibitor, single point]",
COc1ccc2c(c1)CCc1c(C(=O)NCCc3ccc(OC)c(OC)c3)noc1-2,inactive,
CCOC(=O)/C(C#N)=C/C=C1/C=CC=CN1C,"inconclusive: 23.9 µM [inhibitor, single point]",
COC(=O)/C(C#N)=C/c1ccc(N2CCOCC2)c([N+](=O)[O-])c1,inactive,
COc1ccccc1C(=O)Nc1ccc2c(c1)CN(Cc1cnc(C)s1)CC2,"inconclusive: 26.9 µM [inhibitor, single point]",
CCOC(=O)C1=C(CS(=O)(=O)c2ccc(Br)cc2)NC(=O)NC1c1ccccc1 (configuration not stated),inactive,
O=C(O)COc1ccccc1/C=C1\SC(=S)N(NC(=O)c2ccccc2O)C1=O,"inconclusive: 26.9 µM [inhibitor, partial curve, poor fit]",
O=C(Nc1ccc(Br)cc1Cl)c1ccc2c(=O)n3c(nc2c1)CCC3,active: 21.3 µM,
CCc1nnc(NS(=O)(=O)c2ccc(N/C=C\C(=O)c3ccc(F)cc3)cc2)s1,active: 19 µM,
